In all, about 33,000 sequences were measured (“E-score (-0.5 to 0.5)”: median about -0.054, highest 2% from about 0.35 on). Some of the results follow.
biological target: T1, Stb5 (UniProt P38699); assay: PBM E-score (8-mer binding enrichment) (E-score (-0.5 to 0.5)); higher = stronger / more preferred TF binding; most listed sequences are background and not binding sites; conditions: protein concentration: 200 nM; construct: GST-full length
T1 sequence: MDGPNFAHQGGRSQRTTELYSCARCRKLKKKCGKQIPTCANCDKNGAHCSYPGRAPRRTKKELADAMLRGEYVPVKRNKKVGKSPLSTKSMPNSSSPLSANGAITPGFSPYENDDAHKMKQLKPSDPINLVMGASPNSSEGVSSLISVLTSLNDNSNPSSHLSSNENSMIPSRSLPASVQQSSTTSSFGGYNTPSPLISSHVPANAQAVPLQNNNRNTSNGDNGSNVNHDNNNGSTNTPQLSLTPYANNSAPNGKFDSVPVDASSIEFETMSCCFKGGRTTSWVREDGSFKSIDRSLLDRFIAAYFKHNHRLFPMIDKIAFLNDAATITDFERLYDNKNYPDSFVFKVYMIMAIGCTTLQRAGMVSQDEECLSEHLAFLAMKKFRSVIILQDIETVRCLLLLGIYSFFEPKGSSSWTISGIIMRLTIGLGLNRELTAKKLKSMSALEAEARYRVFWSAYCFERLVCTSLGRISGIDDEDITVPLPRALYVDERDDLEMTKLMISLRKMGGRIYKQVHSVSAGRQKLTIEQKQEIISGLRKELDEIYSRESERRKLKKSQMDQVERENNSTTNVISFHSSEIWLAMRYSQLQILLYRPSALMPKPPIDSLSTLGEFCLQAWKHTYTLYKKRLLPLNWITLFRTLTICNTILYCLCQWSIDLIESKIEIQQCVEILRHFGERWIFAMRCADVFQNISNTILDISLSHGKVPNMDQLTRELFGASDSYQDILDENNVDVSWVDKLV
How it was run: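 Universal all-10-mer Agilent arrays, double-stranded by primer extension on fresh or once-stripped slides, were probed with about 100-200 nM GST-tagged yeast transcription factors made by PURExpress. Fluorescent anti-GST detected bound protein, and masliner normalised the scans. E-scores from the Universal PBM Analysis Suite were given to each ungapped eight-base word pooled with its reverse complement.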

Sequence	PBM E-score
TGACTCAA	-0.195
CCCTCTTC	-0.315
ATTCCCAA	-0.197
GCGGGCCC	0.308
GGTCCTTA	0.179
AGATTCCG	0.132
ACTGCTCA	-0.274
ACATTAAC	0.0339
CTCCTTAC	-0.129
AGCGTCCT	-0.177
AGTTCCGC	0.361
ACGAGGAT	-0.242
GTTTTTCA	-0.0118
CGCTAGTC	0.0421
GGCAGAAA	0.0733
GTCCTCAC	0.0102
AAGTACAC	-0.0188
CTCGTCTA	-0.199
AACGGCTA	-0.0813
ATAGGCCC	0.329
AAGCAATA	-0.0795
CCAGGCCG	0.05
AGAGAGCT	-0.179
CGCACATA	0.277
CAAAAGGA	-0.15

Sequence	PBM E-score
AGTTGGGG	-0.215
ATTCAAGA	-0.0798
GACGAACA	0.0525
TACTAAGA	-0.065
CGAGTCCG	0.175
CGACAGAG	0.0441
AAGACTGG	-0.11
TGGAGCCA	-0.202
CCTCGTCG	0.0785
CAGGGGTC	-0.139
AGATAGGC	-0.13
GGGTCCAC	0.0782
AACTCGGC	-0.00903
ACTGCAGA	-0.185
CTGCGGAC	0.226
CTAGTTAA	-0.0436
ACCACAGC	-0.0817
CTGGAAAA	-0.0126
TCGTGACA	-0.123
CCCCCGGG	0.237
AGCACGGG	0.199
ACGTGCCG	0.093
CAATAGAG	-0.255
CATACCTA	-0.146
AGAAGGTC	-0.0142

Sequence	PBM E-score
GGAGCAGA	-0.1
CGCGTAGA	-0.155
AGAAGTAT	-0.168
ACCGAAGG	0.227
GAGGTGGA	0.0596
GCCGAGGA	-0.00831
GTTCTATA	-0.0515
AGATCAGG	-0.126
CTTGACCC	0.0204
AGCGTCAC	-0.0884
CTTCATGC	0.0192
AATGACAT	-0.161
CATTGAAC	-0.0368
ACCTCAAG	-0.321
TAAAGTAA	-0.128
AAGAGCAA	-0.0829
ACATCGGT	0.344
CGCTAAAA	0.0761
GTGCGCAC	0.183
CCCATAGA	-0.285
ACCGCCAG	0.368
GAAAGTAA	0.0101
AAGTGACG	0.0708
AGTCAAAA	-0.00563
CTTCAGGA	-0.0938

Sequence	PBM E-score
ACACTTCA	-0.222
CCAGCATA	-0.179
ATCGGTCC	0.396
CCTGATAG	-0.182
AGAGCTCG	-0.167
AGGCTTGC	-0.336
GTCTCGGA	0.0832
TATGCACA	-0.16
GATATTCC	0.239
GGCGCGTA	0.0314
CGCATATA	0.18
CCCCCCTA	-0.234
TCCTAGGA	-0.186
TGGGATAA	0.0481
ACTTTACC	0.0955
ATGATTCC	0.0675
GAGTCGAA	-0.157
ATGGCTTC	-0.305
ACTGAGAC	-0.159
ATTACGCC	0.106
CGGGTGGA	-0.0171
TCGGTTAA	0.148
ACGCCGAC	0.435
AAATATCC	0.287
CTGCGAGC	0.0356

Sequence	PBM E-score
ATCTGTCA	-0.111
AACCGAAT	0.0411
CTCGATTC	-0.268
GCAAGTAA	0.0422
ATCTTCAG	-0.233
GTGTGGCA	-0.155
ATTTCCGG	0.27
AAATTGGT	-0.0138
CTGCCGGA	0.0838
ACGTGGGC	0.0595
GCAGGCTA	-0.122
CACCTTGG	-0.106
ATGCAATC	-0.146
ATTCCAAT	-0.0948
AAGGCGCG	0.0688
CACACGAA	-0.105
CTTCTTTA	0.113
AAACCCGC	0.414
ATGGACTA	-0.0893
CGTATGAA	0.0232
ACAGACTA	-0.255
ACCAGAAG	-0.0974
TGGTTACA	0.0306
ATACCTTC	0.00151
GTAAATTA	0.0961

Sequence	PBM E-score
CAGGCCGC	0.187
ACCTTCAG	-0.145
CCGGCTCA	0.251
ATGCCGAG	0.147
GAAACAGA	-0.146
TACCCACA	-0.228
TCTCCCCA	-0.0906
CAATAACC	0.0908
ATGCCGGA	0.373
TAAGGGTA	-0.108
GGCCGGTA	0.259
ACCCTTCA	-0.239
CCTTATAG	0.0545
CCATATCG	0.299
ACTAAGCC	0.0556
TAGATTGA	0.0223
CTACCTAC	-0.133
CACAGGTA	-0.341
CAAGCGGG	0.273
AACTACTT	-0.00769
GGGGTCAC	0.0259
AGAGGAGA	-0.194
CAACGAAC	0.079
AGAAATTA	0.0588
CTGCCGGC	0.242

Sequence	PBM E-score
GTGGAACA	-0.0734
CGATGGAC	0.0592
AATTCAAC	0.0401
GACTACGC	0.0477
ACTATCCG	0.0801
CTCCGGAA	0.186
ATATTTGG	-0.233
CCTACAGG	-0.0425
TCTTTCCA	0.0567
CCAGCCCG	0.0641
AAAGGTAA	-0.145
ATAACAAG	-0.0868
GGCAGTGA	0.0229
ACTTTCGA	-0.0843
GCGTACGC	0.116
AAAAGTTA	-0.0905
AATCGGCA	0.29
CAAAAGAG	-0.072
CTCACTGA	-0.18
GGGCAGAC	0.136
CACCGGCC	0.318
GCCGCGCA	0.29
ACTCAGGA	-0.0461
AAAACGTG	-0.181
AAGATCGG	0.352

Sequence	PBM E-score
GCGGTAAC	0.344
CTCCTTGC	-0.233
GGCCGAAA	0.0562
AACGAAGA	-0.0253
AAACGGTC	0.25
CCTATGGC	-0.11
AGAATGGG	-0.212
AGAGGTAA	0.0515
GATCCGAA	0.107
TATGATCA	-0.132
AGGGAAAC	-0.25
ATGGAACA	-0.314
CACTAAAA	-0.0274
CGTTAAAC	0.117
CCCTTAGC	-0.0196
AGGATCTA	-0.156
GGAAAAGA	-0.0868
ATTACGGA	0.222
GGCCGCAC	0.279
AATCCCGT	0.419
TCGTAACA	0.0574
GATGTAAA	0.0302
GGTCTCCA	-0.136
GAGTCTTA	-0.0843
CCTTGACG	-0.0945

Sequence	PBM E-score
AATTACGA	-0.0854
AGCCGCGC	0.173
AGAGCGTG	0.0544
CCATGACC	-0.0881
ATGCGAAA	-0.0503
CTTATCTA	-0.062
ACACAGGT	-0.204
ATAAGTAG	-0.13
AGTGGGAC	-0.0588
AGGTGGCC	-0.159
CACAAGGG	-0.104
AATGAAGA	-0.032
GGCCCGCA	0.182
CCTTCCAG	-0.22
AGATGCCA	-0.157
GGACACAC	0.152
CACTAGGG	-0.111
AGTACAAC	0.00707
ACTCAGGG	-0.296

From the supplement of paper PMC3334620
